# Assay results from a collection of fitness landscapes (doi:10.1126/science.1257360).
# The list shows a part of the results.
# B1: PhoQ; a variant is named by its letters at X, in order, P23837 (parent)
# chain: MKKLLRLFFPLSLRVRFLLATAAVVLVLSLAYGMVALIGYSVSFDKTTFRLLRGESNLFYTLAKWENNKLHVELPENIDKQSPTMTLIYDENGQLLWAQRDVPWLMKMIQPDWLKSNGFHEIEADVNDTSLLLSGDHSIQQQLQEVREDDDDAEMTHSVAVNVYPATSRMPKLTIVVVDTIPVELKSSYMVWSWFIYVLSANLLLVIPLLWVAAWWSLRPIEALAKEVRELEEHNRELLNPATTRELTSLVRNLNRLLKSERERYDKYRTTLTDLTHSLKTPLXXLQXXLRSLRSEKMSVSDAEPVMLEQISRISQQIGYYLHRASMRGGTLLSRELHPVAPLLDNLTSALNKVYQRKGVNISLDISPEISFVGEQNDFVEVMGNVLDNACKYCLEFVEISARQTDEHLYIVVEDDGPGIPLSKREVIFDRGQRVDTLRPGQGVGLAVAREITEQYEGKIVAGESMLGGARMEVIFGRQHSAPKDE
# Variants of: B1
# Assay: enrichment ratio after two sorts for PhoP signalling (ratio (wild type AVST 3.29)); higher = more functional
# Details: with PhoP (E. coli)
row,Variant,enrichment ratio
1,LPPY,≤ 0.25
2,GKRG,≤ 0.25
3,SIFM,≤ 0.25
4,ANQV,8.97
5,TSCR,2.04
6,HQWM,≤ 0.25
7,RAIF,≤ 0.25
8,INAR,≤ 0.25
9,ETWY,≤ 0.25
10,FCPC,≤ 0.25
11,NIMW,≤ 0.25
12,KMVE,≤ 0.25
13,FRCT,≤ 0.25
14,DKML,≤ 0.25
15,YRRN,≤ 0.25
16,HYYY,≤ 0.25
17,LRYE,≤ 0.25
18,EAQS,≤ 0.25
19,NQMW,≤ 0.25
20,NVAM,≤ 0.25
21,LTYW,≤ 0.25

row,Variant,enrichment ratio
1,YVQF,0.282
2,FPQT,≤ 0.25
3,IEMM,≤ 0.25
4,YYSR,≤ 0.25
5,SGPY,≤ 0.25
6,QADM,≤ 0.25
7,LQWQ,≤ 0.25
8,WCIW,≤ 0.25
9,NTTQ,≤ 0.25
10,LIMK,≤ 0.25
11,GQPF,≤ 0.25
12,HRTY,≤ 0.25
13,VQCC,≤ 0.25
14,GWRP,≤ 0.25
15,TTRD,≤ 0.25
16,IMYS,≤ 0.25
17,LCCE,≤ 0.25
18,IHRK,≤ 0.25
19,DLYL,≤ 0.25
20,YEHK,≤ 0.25
21,TVMD,≤ 0.25

row,Variant,enrichment ratio
1,LLKK,≤ 0.25
2,VYNV,≤ 0.25
3,AGMA,5.7
4,IGFY,≤ 0.25
5,AHKF,≤ 0.25
6,VNWI,≤ 0.25
7,MDNY,≤ 0.25
8,LVSR,≤ 0.25
9,IHVG,≤ 0.25
10,AQPI,≤ 0.25
11,KQGV,≤ 0.25
12,FHFT,≤ 0.25
13,WCTR,≤ 0.25
14,IHNH,≤ 0.25
15,LTKT,≤ 0.25
16,HIPQ,≤ 0.25
17,GVCH,6.89
18,QVVR,≤ 0.25
19,IDNH,≤ 0.25
20,QTSK,≤ 0.25
21,FRKQ,≤ 0.25

row,Variant,enrichment ratio
1,PEID,≤ 0.25
2,VAQN,≤ 0.25
3,HDAD,≤ 0.25
4,FAWN,≤ 0.25
5,YKYY,≤ 0.25
6,TSDV,5.89
7,LLGH,≤ 0.25
8,GYIY,≤ 0.25
9,AKSG,5.13
10,SHVF,1.7
11,QFIE,≤ 0.25
12,FYDR,≤ 0.25
13,PKCQ,≤ 0.25
14,YRVK,≤ 0.25
15,NATM,≤ 0.25
16,WHYI,≤ 0.25
17,AWNR,≤ 0.25
18,FCVC,0.972
19,TFDS,≤ 0.25
20,YCKQ,≤ 0.25
21,GRTQ,≤ 0.25
